Measurements: publication PMC6919601, “Identification of Plasmodium dipeptidyl aminopeptidase allosteric inhibitors by high throughput screening” (PLoS ONE, 2019)
The whole screen tested about 110,000 compounds, of which about 230 (0.21%) showed an effect of 50% or more. This is one part of the list.

molecular target: DPAP1 (Plasmodium falciparum, UniProt Q8IIJ9); test: primary screen, percent inhibition; read by cleavage of a fluorogenic dipeptide substrate; higher = more effect of the substance; design: species or system P. falciparum D10 trophozoite lysates; single well
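Further: 30 min substrate incubation versus DMSO and 10 µM JCP410 controls.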

Chain of DPAP1 (Q8IIJ9 whole entry, looked up): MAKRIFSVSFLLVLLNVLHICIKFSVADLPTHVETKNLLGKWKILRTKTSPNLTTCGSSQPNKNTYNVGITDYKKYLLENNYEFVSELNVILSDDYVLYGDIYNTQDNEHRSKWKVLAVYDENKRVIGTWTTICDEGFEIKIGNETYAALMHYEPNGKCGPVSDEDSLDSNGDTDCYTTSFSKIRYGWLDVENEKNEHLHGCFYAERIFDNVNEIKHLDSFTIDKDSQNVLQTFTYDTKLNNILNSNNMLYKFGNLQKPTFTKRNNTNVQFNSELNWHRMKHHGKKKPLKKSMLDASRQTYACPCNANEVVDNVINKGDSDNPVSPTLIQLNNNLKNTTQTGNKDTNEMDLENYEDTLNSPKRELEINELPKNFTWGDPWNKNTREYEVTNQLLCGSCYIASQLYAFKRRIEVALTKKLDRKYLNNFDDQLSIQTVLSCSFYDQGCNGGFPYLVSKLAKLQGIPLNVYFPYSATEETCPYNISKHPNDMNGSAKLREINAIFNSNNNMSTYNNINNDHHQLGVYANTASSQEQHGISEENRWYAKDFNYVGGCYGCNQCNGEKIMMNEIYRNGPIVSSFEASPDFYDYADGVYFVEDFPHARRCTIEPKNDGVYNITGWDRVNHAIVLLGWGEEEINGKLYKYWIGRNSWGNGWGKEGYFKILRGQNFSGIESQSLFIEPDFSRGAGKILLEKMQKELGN

Row | SMILES | % Inhibition @ 10 uM [%]
1 | OCc1ccc(Oc2ccccc2)cc1 | 2.44
2 | O=C(Nc1ccc2c(c1)oc1ccccc12)c1ccco1 | -5.59
3 | CC(=O)Nc1ccc(S(=O)(=O)Nc2ccc(C(=O)c3ccccc3)cc2)cc1 | -4.05
4 | C=CCSc1nc2c(c(=O)n1Cc1ccccc1)C(C1CCCCC1)Cc1ccccc1-2 (centres unmarked) | 3.01
5 | CCN1C2=NCCN2c2cc(C)c(C)cc21 | -3.09
6 | CC(Nc1sc(S(C)(=O)=O)nc1S(=O)(=O)c1ccc(Cl)cc1)c1ccccc1 (centres unmarked) | -4.04
7 | Cc1cc(NC(=O)COc2ccc(Cl)c(C)c2)no1 | 3.53
8 | CC1CCCN(C(=O)c2ccc(C/N=c3/c(N4CCCCC4)c(O)c3=O)cc2)C1 (centres unmarked) | 3.24
9 | Nc1c(-c2nc(-c3ccccc3F)no2)nnn1-c1cccc(C(F)(F)F)c1 | 1.93
10 | Cc1ccc(F)c(NC(=O)Cn2nc(C(F)F)cc2C)c1 | 13.5
11 | CC(=O)Nc1cccc(NC(=O)c2ccccc2C)c1 | -0.796
12 | Cc1ccc(-c2nc(CN3CCCCC3)cc(CN3CCCCC3)c2O)cc1 | -2.18
13 | CC1=C(C(=O)NCCN2CCCCC2C)C2(CCCCC2)OC1=O (centres unmarked) | -4.61
14 | O=C(NCc1ccc2c(c1)OCO2)C1c2ccccc2C(=O)N2CCc3ccccc3C12 (centres unmarked) | -4.43
15 | COc1ccc(OC)c(/C=C(\C#N)c2nc3ccccc3n2C)c1 | 0.611
16 | COc1ccc(Br)cc1CN1CCc2cc(OC)c(OC)cc2C1 | -3.72
17 | COC(=O)C1=CN(Cc2ccc(F)cc2)C=C(C(=O)OC)C1c1ccccc1OCc1ccccc1 | 0.219
18 | COc1ccc(-c2nc3c4cnn(-c5ccc(C)cc5)c4ncn3n2)cc1OC | -9.83
19 | O=C(O)c1sc2cc([N+](=O)[O-])ccc2c1Cl | -4.21
20 | COc1cc([C@H]2NCC[C@@]3(O)CCCC[C@H]23)cc(OC)c1OC | -5.41
21 | Cn1c(-c2ccc3c(c2)OCO3)c(C(=O)O)c(=O)c2ccccc21 | 5.17
22 | CCO/C(O)=C1/C(CC)=NC2=C(C(=O)CCC2)C1c1ccccc1 (centres unmarked) | 0.162

Row | SMILES | % Inhibition @ 10 uM [%]
23 | CC1=NN2C(=O)NC(C(F)(F)F)(C(F)(F)F)N=C2S1 | 1.72
24 | Cn1c(=O)c2c(nc(NCC3CCCO3)n2Cc2cccc(Br)c2)n(C)c1=O (centres unmarked) | 0.431
25 | CC1(C)Oc2ccc3ccc(=O)oc3c2CC1O (centres unmarked) | 2.13
26 | CC1CCN(c2ncnc3onc(-c4ccc(F)cc4)c23)CC1 | 1.23
27 | CCOc1ccc(Nc2cc(C)nc(Nc3ccc(OCC)cc3)n2)cc1 | 2.45
28 | CCCCOC(=O)Nc1nnc(-c2ccc(C(C)(C)C)cc2)s1 | 1.13
29 | COc1ccc(C(=O)Nc2ccccc2Cl)cc1Br | 7.67
30 | COc1ccc(-n2nnc(-c3nsc(NC(=O)c4cccc(C)c4)n3)c2C)cc1Cl | 0.936
31 | COC(=O)C1C(c2ccccc2)NC(c2ccccc2)C(C(=O)OC)S1(=O)=O (centres unmarked) | 1.21
32 | Cc1cccc(NC(=O)COc2ccc(Br)cc2)c1C | 0.035
33 | O=[N+]([O-])c1ccc(C2Nc3ccccc3N2)o1 | 2.5
34 | CC(=O)Nc1ccc(S(=O)(=O)Nc2sc3c(c2C(N)=O)CCCC3)cc1 | 0.431
35 | COc1ccccc1Oc1nc2ccccn2c(=O)c1/C=C(\C#N)C(=O)NCCCOC(C)C | 3.63
36 | CCN(CC)C(=O)C1CCCN(Cc2ccccc2F)C1 (centres unmarked) | -0.0404
37 | CCC(C)NC(=O)CS(=O)Cc1nc(-c2ccccc2)oc1C (centres unmarked) | 3.19
38 | Cc1ccc2nc(NC(=O)Cn3cnc4c3c(=O)n(C)c(=O)n4C)sc2c1 | -7.23
39 | Cc1c(C(=O)N(Cc2ccccc2)C(C)C)oc2ccc(S(=O)(=O)N3CCCC3)cc12 | 1.16
40 | CCOc1ccc(C(=O)Nc2nc(C)cc(C)n2)cc1 | -1.37
41 | Clc1ccccc1N1CCN(Cc2ccc3ccccc3c2)CC1 | -2.03
42 | Cc1cc(C)c2nc(NCc3ccccc3O)sc2c1 | 3.93
43 | Cc1cc(C(C)(C)C)cc(C)c1NS(C)(=O)=O | -6.07
44 | Cc1c(Cc2ccccc2)sc(NC(=O)Cc2ccccc2)c1C(N)=O | -4.02

Row | SMILES | % Inhibition @ 10 uM [%]
45 | COc1cccc(/C=N\c2cccnc2)c1O | 0.26
46 | O=C(Nc1ccc(-c2ccc([N+](=O)[O-])cc2)cc1)c1ccccc1F | 0.98
47 | COc1nc2cc(C)ccc2cc1C=O | 7.39
48 | Cc1c(O)ccc(C(=O)COc2ccc(F)cc2)c1O | -0.615
49 | CC1CCCN(C2CCN(CCc3ccccc3)CC2)C1 (centres unmarked) | 3.19
50 | Cc1ccccc1C=C1C(=O)N(C)C(=O)N(C)C1=O | 0.343
51 | CN(CC(=O)NC1CCCC1)S(=O)(=O)c1cc(Br)cnc1N | 3.1
52 | COc1cc(OC)cc(-c2nnc(SCC(=O)N3CCCC(C)C3)o2)c1 (centres unmarked) | -0.999
53 | O=C(c1cccc(S(=O)(=O)N2CCOCC2)c1)c1cccc(S(=O)(=O)N2CCOCC2)c1 | -1.74
54 | CCN1CCC(Nc2ccc3c(c2)CCC3)CC1 | 1.43
55 | C=CCNC(=O)c1cnn2c(C(F)(F)F)cc(-c3cccs3)nc12 | 8.46
56 | COc1ccc(-c2noc(CN(C(=O)CC(c3ccccc3)c3ccccc3)C(C)C)n2)cc1 | -3.68
57 | COc1ccccc1C(=O)Nc1ccc2nc(SCC(=O)NC3CC3)sc2c1 | 1.01
58 | O=C(O)CCC/N=C/C1=C(O)CCCC1=O | 3.79
59 | O=C(Cn1ncc2c(=O)oc3ccccc3c21)NCc1ccc2c(c1)OCO2 | -6.62
60 | Cc1cccc(NC(=N)Nc2nc(C)c(Cc3ccccc3)c(O)n2)c1 | 6.07
61 | C=CCNC(=O)C1CCN(c2nc3ccc(CC)cc3s2)CC1 | 2.79
62 | CCOC(=O)C1=C(C)N(C)C(SC)=NC1c1ccccc1 (centres unmarked) | 4.42
63 | FC(F)(F)c1cc(-c2ccccc2)nc(NCc2cccnc2)n1 | 2.59
64 | CC1CN(S(=O)(=O)c2ccc(F)cc2)C(C)CN1S(=O)(=O)c1ccc(F)cc1 (centres unmarked) | -1.44
65 | CCC(C(=O)NCCN1CCCCCC1)n1nc(C)c2sc3ccccc3c2c1=O (centres unmarked) | -4.43
